In the supplement of paper PMC10723795:
Counter-ions that a name gives are not always drawn. The list shows a part of the results.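 Rule for the calls: active = more than 2 SD below the DMSO mean: under 0.85 at 10 µM or 0.885 at 1 µM; inactive = the rest.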 Repeats are few or missing, and single values can be far off.

Test system: RPE1
Assay: nucleolar normality score relative to DMSO (fraction of DMSO control); RPE1 is a non-cancer human cell line; higher = more normal nucleoli (less nucleolar stress)
Details: 24 h
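Note: fixed cells immunolabelled for nucleolin and UBF, 40 image fields per well in 384-well plates, per-cell score = nucleolin nucleolar/nucleoplasm intensity ratio divided by the matching UBF ratio.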

Compound | nucleolar normality score (1 µM) | nucleolar normality score (10 µM)
CC(C)n1cnc2c(NCCc3ccc(O)cc3)nc(-c3csc4ccccc34)nc21 [StemRegenin 1 (SR1)] | inactive: 1.12 | inactive: 1.17
O=C(NNc1ccccc1)c1ccncc1 | inactive: 0.951 | inactive: 0.971
O=C1OC(=O)[C@H]2[C@@H]1[C@@H]1CC[C@H]2O1 [Norcantharidin] | inactive: 1.04 | inactive: 1.07
O=C(NCCCNc1nc(Nc2cccc(NC(=O)N3CCCC3)c2)ncc1I)c1cccs1 | inactive: 0.889 | inactive: 0.963
Cc1cccc(-c2[nH]ncc2-c2ccc3ncccc3n2)n1 | inactive: 1.01 | inactive: 1.04
Cc1ccccc1C(=O)Nc1ccc(C(=O)N2CCCC(N(C)C)c3ccccc32)cc1 (stereo not given) [Mozavaptan] | inactive: 1.06 | active: 0.832
C=C[C@@](C)(/C=C/c1ccc(O)cc1)CCC=C(C)C [Bakuchiol] | inactive: 0.934 | inactive: 0.892
NS(=O)(=O)c1ccc(NC(=O)Nc2ccc(F)cc2)cc1 | inactive: 1.07 | inactive: 0.911
CCCCCCCCNC(C)C(O)c1ccc(SC(C)C)cc1 (stereo not given) [Suloctidil] | inactive: 1.03 | inactive: 1.01
C=C(C)[C@@H]1CC[C@]2(C)CC[C@]3(C)[C@H](CC[C@@H]4[C@@]5(C)CC[C@H](O)C(C)(C)[C@@H]5CC[C@]43C)[C@@H]12 [Lupeol] | inactive: 0.974 | inactive: 1.01
S=c1[nH]cnc2nc[nH]c12 [Mercaptopurine (6-MP)] | inactive: 1.02 | inactive: 1.05
COc1cc2c(cc1OC)[C@@H]1C(=O)c3ccc4c(c3O[C@@H]1CO2)C=CC(C)(C)O4 [Deguelin] | inactive: 1.02 | inactive: 0.984
CCCCCCOc1cc(C)c(O)c(C)c1C [HTHQ(1-O-Hexyl-2,3,5-trimethylhydroquinone)] | inactive: 1.05 | inactive: 1.02
COc1ccc(OC)c(C2C(C#N)=C(N)Oc3n[nH]c(-c4ccc5ccccc5c4)c32)c1 (stereo not given) | inactive: 0.988 | inactive: 0.943
Oc1nc(-c2ccc(C(F)(F)F)cc2)nc2c1CSCC2 | inactive: 0.993 | inactive: 1.05
COc1ccc(CCc2nc3cc(-c4c(C)noc4C)ccc3n2C[C@H](C)N2CCOCC2)cc1Cl | inactive: 1.03 | inactive: 1.07
CNCc1ccc(-c2[nH]c3cc(F)cc4c3c2CCNC4=O)cc1 | inactive: 0.996 | inactive: 1.08
CCNC(=O)c1noc(-c2cc(C(C)C)c(O)cc2O)c1-c1ccc(CN2CCOCC2)cc1 [Luminespib (AUY-922, NVP-AUY922)] | active: 0.317 | active: 0.31
CC(=O)c1cc([N+](=O)[O-])c(Sc2ccc(F)cc2F)s1 | active: 0.857 | inactive: 0.943
COc1cc(O)cc(O)c1C(=O)C=Cc1ccccc1 [Cardamonin] | inactive: 1.03 | inactive: 0.91

Compound | nucleolar normality score (1 µM) | nucleolar normality score (10 µM)
N=C1CCCN1Cc1[nH]c(=O)[nH]c(=O)c1Cl.O=c1[nH]c(=O)n([C@H]2C[C@H](O)[C@@H](CO)O2)cc1C(F)(F)F | inactive: 0.96 | inactive: 0.973
Cc1c(NC(=O)OC[C@@H]2COCCN2)cn2ncnc(Nc3ccc4c(cnn4Cc4cccc(F)c4)c3)c12 | inactive: 1.06 | inactive: 1.12
Cc1ccc2nc(NCCN)c3ncc(C)n3c2c1 | inactive: 0.959 | inactive: 0.995
CN1CCC(CNc2ccc3ncc(-c4cccc(OC(F)(F)F)c4)n3n2)CC1 [SGI-1776 free base] | inactive: 1.05 | inactive: 1.14
C[C@H]1COC2(CCN(c3nc(=O)c4cc(C(F)(F)F)cc([N+](=O)[O-])c4s3)CC2)O1 (racemic) [BTZ043 Racemate] | inactive: 1.01 | inactive: 1.04
COc1cc(C(=O)NC2CCN(C)CC2)ccc1Nc1ncc2c(n1)N(C1CCCC1)CC(F)(F)C(=O)N2C | inactive: 0.933 | inactive: 0.998
O=C(NCc1cccc(O)c1)Nc1nc(-c2ccncc2)cs1 | inactive: 0.898 | inactive: 1.02
COc1c(C)c2c(c(O)c1C/C=C(\C)CCC(=O)OCCN1CCOCC1)C(=O)OC2 [Mycophenolate Mofetil] | inactive: 1.04 | inactive: 1.11
C#CC1(O)CC[C@H]2[C@@H]3CCC4=CC(=O)CC[C@@H]4[C@H]3CC[C@@]21CC (mixture of isomers) [Norgestrel] | inactive: 1.03 | inactive: 1.04
Cn1cc(/C=C/C(=O)c2cccc(F)c2)cc1/C=C/C(=O)NO | inactive: 1.04 | inactive: 1.1
C[C@@H](Nc1nc(N[C@H](C)C(F)(F)F)nc(-c2cccc(Cl)n2)n1)C(F)(F)F [Vorasidenib (AG-881)] | inactive: 1.03 | inactive: 1.04
COc1nc(C)cnc1NS(=O)(=O)c1cccnc1-c1ccc(-c2nnco2)cc1 [Zibotentan (ZD4054)] | inactive: 0.984 | inactive: 1.05
Cn1cc(C2=C(c3cn(CCCSC(=N)N)c4ccccc34)C(=O)NC2=O)c2ccccc21 [Bisindolylmaleimide IX (Ro 31-8220 Mesylate)] | inactive: 0.967 | inactive: 1.03
NC(=O)Nc1sc(-c2ccc(F)cc2)cc1C(N)=O | inactive: 1.01 | inactive: 0.861
C=C[C@H]1[C@H](O[C@@H]2O[C@H](CO)[C@@H](O)[C@H](O)[C@H]2O)OC=C2C(=O)OCC[C@]21O [Swertiamarin] | inactive: 1.06 | inactive: 0.945
Cc1nn(C)c(COc2ccc(N3CCN(S(=O)(=O)N(C)C)CC3)cc2)c1-c1cccc2c(CCCOc3cccc4ccccc34)c(C(=O)O)n(CCN3CCOCC3)c12 | inactive: 1.05 | inactive: 0.903
Cc1ccc(C(=O)N(CCCN)[C@@H](c2nc3cc(Cl)ccc3c(=O)n2Cc2ccccc2)C(C)C)cc1 | active: 0.774 | inactive: 0.895
O=c1cc(N2CCOCC2)oc2c(-c3ccc4c(c3)OCCO4)csc12 | inactive: 0.926 | inactive: 0.985
Nc1ncnc2c1c(I)cn2C1OC(CO)C(O)C1O (stereo not given) [5-Iodotubercidin] | inactive: 0.993 | inactive: 1.01
COc1cc2ncnc(Nc3ccc(F)c(Cl)c3)c2cc1NC(=O)/C=C/CN1CCCCC1 | inactive: 1.06 | active: 0.813

Compound | nucleolar normality score (1 µM) | nucleolar normality score (10 µM)
CC(C)CCn1c(CN2CCN(C(=O)C3CC3)CC2)nc2c1c(=O)n(C)c(=O)n2C | inactive: 0.99 | inactive: 1.03
CC(C)(C)c1cc(NC(=O)Nc2ccc(Oc3ccnc4[nH]c(=O)cnc34)cc2F)n(-c2ccccc2)n1 | inactive: 1 | inactive: 1.04
CC(C)(O)CNc1nc(Nc2ccnc(C(F)(F)F)c2)nc(-c2cccc(C(F)(F)F)n2)n1 [Enasidenib (AG-221)] | inactive: 0.933 | inactive: 1.08
Cc1cc(Nc2ncc(Cl)c(Nc3ccccc3S(=O)(=O)C(C)C)n2)c(OC(C)C)cc1C1CCNCC1 [Ceritinib (LDK378)] | inactive: 1.07 | active: 0.553
CC(Cc1ccc(O)c(O)c1)C(C)Cc1ccc(O)c(O)c1 (stereo not given) [Nordihydroguaiaretic acid (NDGA)] | inactive: 1.08 | inactive: 0.926
C[C@@H](Oc1cc(-c2cnn(C3CCNCC3)c2)cnc1N)c1c(Cl)ccc(F)c1Cl | active: 0.795 | active: 0.699
COc1cc(-c2cc(-c3ccc(N4CCNCC4)cc3)cnc2C)cc(OC)c1OC | inactive: 0.912 | inactive: 0.972
Nc1ccccc1NC(=O)c1ccc(CNc2nccc(-c3cccnc3)n2)cc1 [Mocetinostat (MGCD0103)] | inactive: 0.955 | inactive: 0.971
Cn1sc(=O)n(Cc2ccccc2)c1=O | inactive: 1.02 | inactive: 0.86
Nc1ncnc2c1ncn2[C@@H]1O[C@H](CO)C[C@H]1O [Cordycepin] | inactive: 1.01 | inactive: 0.996
CC(=O)O[C@]1(C(C)=O)CC[C@H]2[C@@H]3C=C(C)C4=CC(=O)CC[C@]4(C)[C@H]3CC[C@@]21C [Megestrol Acetate] | inactive: 1.01 | inactive: 1.11
CN(C)C(=O)c1cc2cnc(Nc3ccc(N4CCNCC4)cn3)nc2n1C1CCCC1 [Ribociclib (LEE011)] | inactive: 1 | inactive: 1.03
Cc1c(C)c2c(c(C)c1O)CCC(C)(CCCC(C)CCCC(C)CCCC(C)C)O2 (stereo not given) [Vitamin E] | inactive: 1.05 | inactive: 1.08
Oc1cc(O)cc(/C=C/c2ccc(O)c(O)c2)c1 [Piceatannol] | inactive: 1 | inactive: 0.897
CC[C@@]1(O)C(=O)OCc2c1cc1n(c2=O)Cc2cc3c(CN(C)C)c(O)ccc3nc2-1 [Topotecan HCl] | inactive: 1.03 | inactive: 1.05
Cc1cc(Nc2cc(CN3CCOCC3)c3nc(C)c(Cc4ccc(Cl)cc4F)n3n2)n[nH]1 | inactive: 1.02 | inactive: 1.07
COc1cc2ncnc(Nc3ccc(O)c(Br)c3)c2cc1OC | inactive: 1.03 | inactive: 0.868
O=C(O)c1ccc(O)c2ncccc12 | inactive: 0.973 | inactive: 1.07
O=C(c1ccc(Cl)cc1Cl)n1nnc2ccccc21 | inactive: 1.03 | inactive: 1
CO[C@H]1/C=C\C=C(/C)C(=O)NC2=CC(=O)C(NCCN(C)C)=C(C[C@@H](C)C[C@H](OC)[C@H](O)[C@@H](C)/C=C(\C)[C@@H]1OC(N)=O)C2=O [Alvespimycin (17-DMAG) HCl] | active: 0.402 | active: 0.326
